Reference: PubChem BioAssay AID2546 (National Center for Advancing Translational Sciences (NCATS), 2010)
Out of some 310,000 compounds screened, about 11,000 (3.5%) were called active. The inconclusive results got no clear call from the source; some entries with a clear call stand among them for comparison. Calls follow the shape of the dose curve; as a rule, active = well fitted inhibition curve with a large enough effect; inconclusive = small, poorly fitted or top-dose-only effect, or effect the other way; inactive = flat fitted curve, though single readings scatter. No potency is given beside an inconclusive call; the fits are too rough.

assay: VP16 counterscreen qHTS for inhibitors of ROR gamma transcriptional activity; conditions: Drosophila S2 Gal4-VP16 UAS-luciferase, luminescence, 20 h; activity, negative = inhibition: at 53.6 µM (top of the series);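 also: Gal4-VP16 expression switched on by copper sulfate through the metallothionein promoter; nearly all actives have a fitted effect of over 50% in size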
% is scaled to controls: 0 for no effect and ±100 for the full control effect; potency is read from the fitted curve at half-maximal effect; tags tell the direction and shape of the fitted curve.

| Structure (SMILES) | Potency | activity, negative = inhibition |
| --- | --- | --- |
| O=c1[nH]nc(Cc2ccc(-c3ccc(Cl)cc3)o2)c2ccccc12 | inconclusive [inhibitor, partial curve] |  |
| CC(=O)c1cccc(CN2CCCC(CCC(=O)NCc3ccc(C)o3)C2)c1 (stereo not given) |  | inactive: -1.63% |
| Cc1cccc(NC(=O)CSCc2nc3c(nnn3Cc3ccc(F)cc3)c(=O)[nH]2)c1C |  | inactive: 1.26% |
| O=C(NNC(=S)Nc1ccc(Cl)cc1)c1ccccc1 |  | inactive: -10.6% |
| CCOC(=O)c1c(/N=C/N(C)C)sc(/C=N/Nc2ccccc2)c1-c1ccc(Cl)cc1 |  | inactive: -20.3% |
| CCC1(c2ccccc2)NC(=S)N(c2cccc(C)c2C)N1 (stereo not given) | active: 7.94 µM |  |
| O=C(CSc1nc2ccccc2s1)c1cc2ccccc2o1 | inconclusive [inhibitor, single point] |  |
| S=C(NN=C(C1CC1)C1CC1)Nc1ccccc1 | active: 17.8 µM |  |
| CC1(C)Cc2c(sc3[nH]c(=S)[nH]c(=O)c23)CO1 | inconclusive [inhibitor, single point] |  |
| O=S(=O)(c1ccc(F)c(F)c1F)N1CCN(C(=S)Nc2ccccc2)CC1 |  | inactive: -15% |
| CC(NC(=O)CCSc1nc(-c2ccco2)cc(C(F)(F)F)n1)c1ccccc1 (stereo not given) |  | inactive: -0.206% |
| Cc1cccc(/C=N/Nc2nncc3ccccc23)c1 | active: 20 µM |  |
| COc1ccc2c(c1)c(CC(=O)Nc1nnc(C3CC3)s1)c(C)n2C(=O)c1ccc(Cl)cc1 |  | inactive: -10.3% |
| C=CCOC(=O)CCCCCCCC | inconclusive [inhibitor, single point] |  |
| Cc1ccc(-c2nc(C)sc2CC(=O)Nc2cccc(C)c2C)cc1 | inconclusive [inhibitor, single point] |  |
| CCOc1ccc(S(=O)(=O)/N=C(/Nc2ccc(OC)cc2)c2ccccc2)cc1 | inconclusive [activator, single point] |  |
| N#CC(c1ccc(F)cc1)c1ccc(C(=O)c2ccccc2)cc1 (stereo not given) | inconclusive [inhibitor, single point] |  |
| O=C1NCCN1CCN1C(=O)c2ccccc2NC1c1ccccc1 (stereo not given) |  | inactive: 5.34% |
| CC(C)CC(NC(=O)c1cccs1)c1nnc(SCc2ccc(Cl)c(Cl)c2)n1C (stereo not given) |  | inactive: -17.2% |
| C/C(=N\Nc1nc(C)cc(C)n1)c1ccc(C)o1 | active: 10 µM |  |
| O=C(NCc1ccccc1)C1CCCC1 |  | inactive: 4.96% |
| CCOC(=O)c1sc(NC(=O)c2ccc(C)o2)nc1C | inconclusive [inhibitor, single point] |  |
| Fc1ccc(NC(=S)N/N=C/c2ccc(F)c(F)c2)c(F)c1 | active: 2.51 µM |  |
| Cc1cc2ccccc2n1CCNC(=O)C(C)Oc1ccccc1 (stereo not given) | inconclusive [inhibitor, single point] |  |
| Cc1cc(NC(=O)CSc2nc(C(C)C)nc3sc4c(c23)CCCC4)no1 | inconclusive [inhibitor, single point] |  |

| Structure (SMILES) | Potency | activity, negative = inhibition |
| --- | --- | --- |
| Nc1c(S(=O)(=O)c2cccs2)c2nc3ccccc3nc2n1Cc1cccs1 |  | inactive: 5.84% |
| O=C(Nc1ccc(Cc2ccncc2)cc1)C1CCC(N2C(=O)C3C4C=CC(C4)C3C2=O)CC1 (stereo not given) | inconclusive [inhibitor, single point] |  |
| COc1ccc(/C=N/NC(=O)c2ccoc2C)cc1CN1CCN(c2ccc(F)cc2)CC1 |  | inactive: -16.4% |
| CCOC(=O)c1ccc(NC(=S)Nc2cc(C)cc(C)n2)cc1 | inconclusive [inhibitor, single point] |  |
| CCNC(=S)N/N=C/c1sccc1C | active: 3.16 µM |  |
| NC(=O)c1ccsc1NC(=O)c1ccc(N2CCCC2=O)cc1 | inconclusive [inhibitor, partial curve, poor fit] |  |
| C/C(=N\NC(=O)C1(C)CC1(Br)Br)c1ccc(NC(=O)C2CCC2)cc1 (stereo not given) |  | inactive: -20% |
| Cc1ccc(SCc2[nH]nc3c2C(c2ccco2)C(C#N)=C(N)O3)cc1 (stereo not given) | inconclusive [inhibitor, single point] |  |
| CCc1ccc(-c2nc(CSCC(=O)N3CCN(c4ccccn4)CC3)c(C)o2)cc1 | active: 12.6 µM |  |
| Cc1ccc(S(=O)(=O)N(C)CCCC(=O)Nc2cccc3ccccc23)cc1 |  | inactive: 1.7% |
| CCCC(=O)N1CCN(c2nc3ccccc3s2)CC1 | inconclusive [inhibitor, single point] |  |
| Cc1cccc(Cn2ncc(Cl)c(Cl)c2=O)c1 | inconclusive [inhibitor, single point] |  |
| O=C(CSc1cccc[n+]1[O-])CSc1cccc[n+]1[O-] | inconclusive [inhibitor, single point] |  |
| N/C(Cc1ccc(Cl)cc1Cl)=N\OC(=O)Cc1ccccc1 | inconclusive [inhibitor, single point] |  |
| COCCCNc1nc2c(c(=O)n(C)c(=O)n2C)n1Cc1cccc(OC)c1 | inconclusive [inhibitor, single point] |  |
| O=C(Nc1cccc(Cl)c1N1CCCC1)c1cc2ccccc2o1 |  | inactive: -6.5% |
| Cc1ccc(S(=O)(=O)N(C)C)cc1NC(=S)Nc1ccc2cn[nH]c2c1 |  | inactive: 3.87% |
| Cn1nccc1C(=O)NC1CCCc2c1cnn2-c1cc(F)cc(F)c1 (stereo not given) | inconclusive [inhibitor, single point] |  |
| CCOC(=O)c1c(-c2ccccc2)csc1NC(=S)NC(=O)c1ccccc1 | active: 6.31 µM |  |
| Cc1ccn2cc(-c3cccc(NC(=O)C(C)C)c3)nc2c1 | inconclusive [inhibitor, partial curve] |  |
| CC(C)(C)OC(=O)[C@H](Cc1ccccc1)NC(=O)c1nc[nH]c1C(=O)N1CCN(c2ccccc2)CC1 | inconclusive [inhibitor, single point] |  |
| CCC(C)(C)C1CCC2(CC1)NC(=S)N(c1ccccc1)N2 (stereo not given) | inconclusive [inhibitor, single point] |  |
| CC1CC(C)(C)NC(=S)N1CCCC(=O)NCCc1ccc(Cl)cc1 (stereo not given) | inconclusive [inhibitor, single point] |  |
| Cc1ccc(NC(=O)N2CCC(=O)N2)cc1 | inconclusive [inhibitor, single point] |  |
| N#CC(c1ccccc1)N(CCCCl)C(=O)c1ccc(Br)cc1 (stereo not given) | inconclusive [inhibitor, single point] |  |
